# Results: PMC12069442
# B1: CYP3A4.32 (Homo sapiens; I335T) (protein)
# chain: MALIPDLAMETWLLLAVSLVLLYLYGTHSHGLFKKLGIPGPTPLPFLGNILSYHKGFCMFDMECHKKYGKVWGFYDGQQPVLAITDPDMIKTVLVKECYSVFTNRRPFGPVGFMKSAISIAEDEEWKRLRSLLSPTFTSGKLKEMVPIIAQYGDVLVRNLRREAETGKPVTLKDVFGAYSMDVITSTSFGVNIDSLNNPQDPFVENTKKLLRFDFLDPFFLSITVFPFLIPILEVLNICVFPREVTNFLRKSVKRMKESRLEDTQKHRVDFLQLMIDSQNSKETESHKALSDLELVAQSIIFIFAGYETTSSVLSFIMYELATHPDVQQKLQEETDAVLPNKAPPTYDTVLQMEYLDMVVNETLRLFPIAMRLERVCKKDVEINGMFIPKGVVVMIPSYALHRDPKYWTEPEKFLPERFSKKNKDNIDPYIYTPFGSGPRNCIGMRFALMNMKLALIRVLQNFSFKPCKETQIPLKLSLGGLLQPEKPVVLKVESRDGTVSGA
# B2: CYP3A4.33 (Homo sapiens; A370S) (protein)
# chain: MALIPDLAMETWLLLAVSLVLLYLYGTHSHGLFKKLGIPGPTPLPFLGNILSYHKGFCMFDMECHKKYGKVWGFYDGQQPVLAITDPDMIKTVLVKECYSVFTNRRPFGPVGFMKSAISIAEDEEWKRLRSLLSPTFTSGKLKEMVPIIAQYGDVLVRNLRREAETGKPVTLKDVFGAYSMDVITSTSFGVNIDSLNNPQDPFVENTKKLLRFDFLDPFFLSITVFPFLIPILEVLNICVFPREVTNFLRKSVKRMKESRLEDTQKHRVDFLQLMIDSQNSKETESHKALSDLELVAQSIIFIFAGYETTSSVLSFIMYELATHPDVQQKLQEEIDAVLPNKAPPTYDTVLQMEYLDMVVNETLRLFPISMRLERVCKKDVEINGMFIPKGVVVMIPSYALHRDPKYWTEPEKFLPERFSKKNKDNIDPYIYTPFGSGPRNCIGMRFALMNMKLALIRVLQNFSFKPCKETQIPLKLSLGGLLQPEKPVVLKVESRDGTVSGA
# B3: CYP3A4.34 (Homo sapiens; I427V) (protein)
# chain: MALIPDLAMETWLLLAVSLVLLYLYGTHSHGLFKKLGIPGPTPLPFLGNILSYHKGFCMFDMECHKKYGKVWGFYDGQQPVLAITDPDMIKTVLVKECYSVFTNRRPFGPVGFMKSAISIAEDEEWKRLRSLLSPTFTSGKLKEMVPIIAQYGDVLVRNLRREAETGKPVTLKDVFGAYSMDVITSTSFGVNIDSLNNPQDPFVENTKKLLRFDFLDPFFLSITVFPFLIPILEVLNICVFPREVTNFLRKSVKRMKESRLEDTQKHRVDFLQLMIDSQNSKETESHKALSDLELVAQSIIFIFAGYETTSSVLSFIMYELATHPDVQQKLQEEIDAVLPNKAPPTYDTVLQMEYLDMVVNETLRLFPIAMRLERVCKKDVEINGMFIPKGVVVMIPSYALHRDPKYWTEPEKFLPERFSKKNKDNVDPYIYTPFGSGPRNCIGMRFALMNMKLALIRVLQNFSFKPCKETQIPLKLSLGGLLQPEKPVVLKVESRDGTVSGA
# B4: CYP3A4.1 (Homo sapiens) (protein)
# chain: MALIPDLAMETWLLLAVSLVLLYLYGTHSHGLFKKLGIPGPTPLPFLGNILSYHKGFCMFDMECHKKYGKVWGFYDGQQPVLAITDPDMIKTVLVKECYSVFTNRRPFGPVGFMKSAISIAEDEEWKRLRSLLSPTFTSGKLKEMVPIIAQYGDVLVRNLRREAETGKPVTLKDVFGAYSMDVITSTSFGVNIDSLNNPQDPFVENTKKLLRFDFLDPFFLSITVFPFLIPILEVLNICVFPREVTNFLRKSVKRMKESRLEDTQKHRVDFLQLMIDSQNSKETESHKALSDLELVAQSIIFIFAGYETTSSVLSFIMYELATHPDVQQKLQEEIDAVLPNKAPPTYDTVLQMEYLDMVVNETLRLFPIAMRLERVCKKDVEINGMFIPKGVVVMIPSYALHRDPKYWTEPEKFLPERFSKKNKDNIDPYIYTPFGSGPRNCIGMRFALMNMKLALIRVLQNFSFKPCKETQIPLKLSLGGLLQPEKPVVLKVESRDGTVSGA
# B5: CYP3A4.3 (Homo sapiens; M445T) (protein)
# chain: MALIPDLAMETWLLLAVSLVLLYLYGTHSHGLFKKLGIPGPTPLPFLGNILSYHKGFCMFDMECHKKYGKVWGFYDGQQPVLAITDPDMIKTVLVKECYSVFTNRRPFGPVGFMKSAISIAEDEEWKRLRSLLSPTFTSGKLKEMVPIIAQYGDVLVRNLRREAETGKPVTLKDVFGAYSMDVITSTSFGVNIDSLNNPQDPFVENTKKLLRFDFLDPFFLSITVFPFLIPILEVLNICVFPREVTNFLRKSVKRMKESRLEDTQKHRVDFLQLMIDSQNSKETESHKALSDLELVAQSIIFIFAGYETTSSVLSFIMYELATHPDVQQKLQEEIDAVLPNKAPPTYDTVLQMEYLDMVVNETLRLFPIAMRLERVCKKDVEINGMFIPKGVVVMIPSYALHRDPKYWTEPEKFLPERFSKKNKDNIDPYIYTPFGSGPRNCIGTRFALMNMKLALIRVLQNFSFKPCKETQIPLKLSLGGLLQPEKPVVLKVESRDGTVSGA
# B6: CYP3A4.5 (Homo sapiens; P218R) (protein)
# chain: MALIPDLAMETWLLLAVSLVLLYLYGTHSHGLFKKLGIPGPTPLPFLGNILSYHKGFCMFDMECHKKYGKVWGFYDGQQPVLAITDPDMIKTVLVKECYSVFTNRRPFGPVGFMKSAISIAEDEEWKRLRSLLSPTFTSGKLKEMVPIIAQYGDVLVRNLRREAETGKPVTLKDVFGAYSMDVITSTSFGVNIDSLNNPQDPFVENTKKLLRFDFLDRFFLSITVFPFLIPILEVLNICVFPREVTNFLRKSVKRMKESRLEDTQKHRVDFLQLMIDSQNSKETESHKALSDLELVAQSIIFIFAGYETTSSVLSFIMYELATHPDVQQKLQEEIDAVLPNKAPPTYDTVLQMEYLDMVVNETLRLFPIAMRLERVCKKDVEINGMFIPKGVVVMIPSYALHRDPKYWTEPEKFLPERFSKKNKDNIDPYIYTPFGSGPRNCIGMRFALMNMKLALIRVLQNFSFKPCKETQIPLKLSLGGLLQPEKPVVLKVESRDGTVSGA
# B7: CYP3A4.8 (Homo sapiens; R130Q) (protein)
# chain: MALIPDLAMETWLLLAVSLVLLYLYGTHSHGLFKKLGIPGPTPLPFLGNILSYHKGFCMFDMECHKKYGKVWGFYDGQQPVLAITDPDMIKTVLVKECYSVFTNRRPFGPVGFMKSAISIAEDEEWKRLQSLLSPTFTSGKLKEMVPIIAQYGDVLVRNLRREAETGKPVTLKDVFGAYSMDVITSTSFGVNIDSLNNPQDPFVENTKKLLRFDFLDPFFLSITVFPFLIPILEVLNICVFPREVTNFLRKSVKRMKESRLEDTQKHRVDFLQLMIDSQNSKETESHKALSDLELVAQSIIFIFAGYETTSSVLSFIMYELATHPDVQQKLQEEIDAVLPNKAPPTYDTVLQMEYLDMVVNETLRLFPIAMRLERVCKKDVEINGMFIPKGVVVMIPSYALHRDPKYWTEPEKFLPERFSKKNKDNIDPYIYTPFGSGPRNCIGMRFALMNMKLALIRVLQNFSFKPCKETQIPLKLSLGGLLQPEKPVVLKVESRDGTVSGA
# B8: CYP3A4.9 (Homo sapiens; V170I) (protein)
# chain: MALIPDLAMETWLLLAVSLVLLYLYGTHSHGLFKKLGIPGPTPLPFLGNILSYHKGFCMFDMECHKKYGKVWGFYDGQQPVLAITDPDMIKTVLVKECYSVFTNRRPFGPVGFMKSAISIAEDEEWKRLRSLLSPTFTSGKLKEMVPIIAQYGDVLVRNLRREAETGKPITLKDVFGAYSMDVITSTSFGVNIDSLNNPQDPFVENTKKLLRFDFLDPFFLSITVFPFLIPILEVLNICVFPREVTNFLRKSVKRMKESRLEDTQKHRVDFLQLMIDSQNSKETESHKALSDLELVAQSIIFIFAGYETTSSVLSFIMYELATHPDVQQKLQEEIDAVLPNKAPPTYDTVLQMEYLDMVVNETLRLFPIAMRLERVCKKDVEINGMFIPKGVVVMIPSYALHRDPKYWTEPEKFLPERFSKKNKDNIDPYIYTPFGSGPRNCIGMRFALMNMKLALIRVLQNFSFKPCKETQIPLKLSLGGLLQPEKPVVLKVESRDGTVSGA
# B9: CYP3A4.10 (Homo sapiens; D174H) (protein)
# chain: MALIPDLAMETWLLLAVSLVLLYLYGTHSHGLFKKLGIPGPTPLPFLGNILSYHKGFCMFDMECHKKYGKVWGFYDGQQPVLAITDPDMIKTVLVKECYSVFTNRRPFGPVGFMKSAISIAEDEEWKRLRSLLSPTFTSGKLKEMVPIIAQYGDVLVRNLRREAETGKPVTLKHVFGAYSMDVITSTSFGVNIDSLNNPQDPFVENTKKLLRFDFLDPFFLSITVFPFLIPILEVLNICVFPREVTNFLRKSVKRMKESRLEDTQKHRVDFLQLMIDSQNSKETESHKALSDLELVAQSIIFIFAGYETTSSVLSFIMYELATHPDVQQKLQEEIDAVLPNKAPPTYDTVLQMEYLDMVVNETLRLFPIAMRLERVCKKDVEINGMFIPKGVVVMIPSYALHRDPKYWTEPEKFLPERFSKKNKDNIDPYIYTPFGSGPRNCIGMRFALMNMKLALIRVLQNFSFKPCKETQIPLKLSLGGLLQPEKPVVLKVESRDGTVSGA
# B10: CYP3A4.12 (Homo sapiens; L373F) (protein)
# chain: MALIPDLAMETWLLLAVSLVLLYLYGTHSHGLFKKLGIPGPTPLPFLGNILSYHKGFCMFDMECHKKYGKVWGFYDGQQPVLAITDPDMIKTVLVKECYSVFTNRRPFGPVGFMKSAISIAEDEEWKRLRSLLSPTFTSGKLKEMVPIIAQYGDVLVRNLRREAETGKPVTLKDVFGAYSMDVITSTSFGVNIDSLNNPQDPFVENTKKLLRFDFLDPFFLSITVFPFLIPILEVLNICVFPREVTNFLRKSVKRMKESRLEDTQKHRVDFLQLMIDSQNSKETESHKALSDLELVAQSIIFIFAGYETTSSVLSFIMYELATHPDVQQKLQEEIDAVLPNKAPPTYDTVLQMEYLDMVVNETLRLFPIAMRFERVCKKDVEINGMFIPKGVVVMIPSYALHRDPKYWTEPEKFLPERFSKKNKDNIDPYIYTPFGSGPRNCIGMRFALMNMKLALIRVLQNFSFKPCKETQIPLKLSLGGLLQPEKPVVLKVESRDGTVSGA
# Substrate: O=C1Cc2cc(CCN3CCN(c4nsc5ccccc45)CC3)c(Cl)cc2N1
# Assay: not read
# Conditions: 20 min
# [1] = other: CYP3A4.32, ziprasidone 0.1–25 μM
# [2] = other: CYP3A4.33, ziprasidone 0.1–25 μM
# [3] = other: CYP3A4.34, ziprasidone 0.1–25 μM
# [4] = other: CYP3A4.1, ziprasidone 0.1–25 μM
# [5] = other: CYP3A4.3, ziprasidone 0.1–25 μM
# [6] = other: CYP3A4.5, ziprasidone 0.1–25 μM
# [7] = other: CYP3A4.8, ziprasidone 0.1–25 μM
# [8] = other: CYP3A4.9, ziprasidone 0.1–25 μM
# [9] = other: CYP3A4.10, ziprasidone 0.1–25 μM
# [10] = other: CYP3A4.12, ziprasidone 0.1–25 μM
protein,measurement,setting,value
B1,Km,[1],2.87 ± 0.82 µM
same,kcat,[1],0.352 ± 0.0208 s⁻¹
B2,Km,[2],2.36 ± 0.42 µM
same,kcat,[2],0.577 ± 0.0767 s⁻¹
B3,Km,[3],2.30 ± 0.58 µM
same,kcat,[3],0.174 ± 0.0203 s⁻¹
B4,Km,[4],5.04 ± 1.96 µM
same,kcat,[4],0.483 ± 0.076 s⁻¹
B5,Km,[5],2.46 ± 0.85 µM
same,kcat,[5],0.377 ± 0.111 s⁻¹
B6,Km,[6],5.80 ± 3.19 µM
same,kcat,[6],0.431 ± 0.189 s⁻¹
B7,Km,[7],1.15 ± 0.20 µM
same,kcat,[7],0.109 ± 0.0132 s⁻¹
B8,Km,[8],1.16 ± 0.17 µM
same,kcat,[8],0.152 ± 0.0205 s⁻¹
B9,Km,[9],3.59 ± 0.12 µM
same,kcat,[9],0.271 ± 0.0252 s⁻¹
B10,Km,[10],0.79 ± 0.17 µM
same,kcat,[10],0.0738 ± 0.005 s⁻¹
